Among all 150,000 compounds or so, about 540 (0.36%) showed an effect of 50% or more. This is one part of the list.
Each compound was assayed on Plasmodium falciparum (assay: Primary screen in NF54 nanoGlo assay, in single point, at 2uM, 72h; a lower Z score goes with more inhibition). Details: timepoint 72 hour.
Format: functional, Erythrocyte
`Cc1cnc(NC(=O)c2ccc3ncoc3c2)c(Br)c1` was tested, and the “% Inhibition” value was 38% and the Z score was -1.37. In the case of `O=C(Nc1ccc(Cl)cc1)Nc1ccc(N2CCN(Cc3ccccc3)CC2)c(C(=O)NC2CCCCC2)c1`, the “% Inhibition” value is reported as 9% and the Z score is reported as -1.52. `Cc1nsc2ncc(C(=O)N3CCCC3)c(N3CCC(C(=O)Nc4ccccc4C(F)(F)F)CC3)c12` was tested, and the “% Inhibition” value was 10% and the Z score was -1.68. In the case of `COc1ccc(OC)c(N2CCN(C(=O)c3ccccc3Cl)[C@@H](C)C2=O)c1`, the “% Inhibition” value is reported as -13% and the Z score is reported as 2.33. With `O=C(CC1CCCCC1)NC1CCN(c2ccc3nccn3n2)CC1` the “% Inhibition” value was 1% and the Z score was -0.14. For `CO[C@H]1COC[C@H]1NC(=O)N1CCS(=O)(=O)CC1C1CCC1` (stereo partly drawn), the “% Inhibition” value was -7% and the Z score was 1.34. For `Fc1ccc2c(c1)CCN(Cc1nc(C3CC3)no1)C2`, the “% Inhibition” value was -7% and the Z score was 0.81. `COc1cccc2c1CCC[C@H](Nc1ncnc3c1cnn3C)C2` was tested, and the “% Inhibition” value was -2% and the Z score was 0.36. For `CC(C)Oc1ccc(N2C[C@@H](C(=O)NCCc3cnccn3)CC2=O)cc1`, the “% Inhibition” value was -1% and the Z score was 0.15. `CC#CC[C@@H](CO)NCc1ccc(Cl)s1` was tested, and the “% Inhibition” value was -13% and the Z score was 1.84. In the case of `C[C@@H](c1ccc(S(C)(=O)=O)cc1)n1ccnc1-c1cc2ccccc2o1`, the “% Inhibition” value is reported as -9% and the Z score is reported as 1.54. With `O=C(NC[C@H]1CCCOC1)c1ccc(-c2cc(O)c(F)c(F)c2)cc1` the “% Inhibition” value was -7% and the Z score was 1.27. With `COc1ccc(OC)c([C@H](C)NC(=O)c2ncoc2-c2ccco2)c1` the “% Inhibition” value was -10% and the Z score was 1.4. `CCOc1ccc(NC(=O)N2CCC3(CC2)C(=O)N(CC(=O)NCc2ccccc2)CN3c2ccccc2)cc1` was tested, and the “% Inhibition” value was -9% and the Z score was 0.81. With `O=C1CC[C@@]2(CCCO2)CCN1Cc1ccccn1` the “% Inhibition” value was -10% and the Z score was 1.96. In the case of `O=C(c1ccccc1)N(Cc1csc(COc2ccc(Cl)cc2)n1)C1CC1`, the “% Inhibition” value is reported as -5% and the Z score is reported as 0.6. In the case of `CN(CCN1CCCCCC1)c1cc([C@H]2CCOC2)nc(N2CC(O)C2)n1`, the “% Inhibition” value is reported as 6% and the Z score is reported as -0.89. In the case of `CCCN(C)[C@@H](C)C(=O)NCc1ccccc1`, the “% Inhibition” value is reported as -9% and the Z score is reported as 1.3. In the case of `Cc1ccc(-n2c(C)ccc2C)c(C(=O)Nc2ccc(N3CCNC(=O)C3)nc2)c1`, the “% Inhibition” value is reported as 0% and the Z score is reported as -0.04. `COc1ccc(C(=O)N2CCCN(CC(=O)N3CCCC3)CC2)cc1OC(F)F` was tested, and the “% Inhibition” value was -4% and the Z score was 0.47. For `NC(=O)COc1ccc(S(=O)(=O)N[C@H]2CCN(Cc3ccsc3)C2)cc1`, the “% Inhibition” value was -11% and the Z score was 1.72. `COCCn1nnnc1[C@]1(N(C)C)CCN(C(=O)c2sc(C)nc2C)C1` was tested, and the “% Inhibition” value was -11% and the Z score was 1.34. With `CCC(=O)Nc1c(C)nc(N2CCCC2)nc1C` the “% Inhibition” value was -3% and the Z score was 0.45. In the case of `O=C(NC1Cc2ccccc2C1)c1ccccc1[C@H]1CCNC1`, the “% Inhibition” value is reported as -7% and the Z score is reported as 1.43. In the case of `CCCOc1ccc(-c2cccc(-c3cc[nH]n3)c2)cc1CO`, the “% Inhibition” value is reported as 3% and the Z score is reported as -0.65. For `Cc1csc(NC(=O)Cn2c(-c3ccncc3)nc3ccccc32)n1`, the “% Inhibition” value was 4% and the Z score was -0.48. In the case of `Cc1c(C(=O)NCCN2CCCC2)cnn1-c1nccc(-c2ccccc2F)n1`, the “% Inhibition” value is reported as -8% and the Z score is reported as 1.6. For `CN(CCC1CCCCC1)C(=O)NCc1ccccn1`, the “% Inhibition” value was -12% and the Z score was 1.46. `O=C([C@@H]1CCCN1C(=O)Nc1ccccc1)N1CCOc2ncccc2C1` was tested, and the “% Inhibition” value was -4% and the Z score was 0.55. `COC[C@@H]1CCCN1CC(=O)Nc1cccc(F)c1C` was tested, and the “% Inhibition” value was -4% and the Z score was 0.34. With `CN(C)CCN(Cc1cccnc1)C(=O)c1ccc(N(C)C)nc1` the “% Inhibition” value was 3% and the Z score was -0.54. `Cc1ccc(C(=O)N(CCN(C)C)Cc2ccccc2)c(C2CCN(S(=O)(=O)c3ccccc3)CC2)n1` was tested, and the “% Inhibition” value was -11% and the Z score was 1.07. `COc1ccc(CNCc2nnc3n2CCOCC3)c(Cl)c1` was tested, and the “% Inhibition” value was -3% and the Z score was 0.43. For `COc1ccccc1NC(=O)[C@H]1CC12CCN(Cc1cccc(OCCO)c1)CC2`, the “% Inhibition” value was -4% and the Z score was 0.61. `CCn1ncc(C)c1NS(=O)(=O)CCc1cccc(F)c1` was tested, and the “% Inhibition” value was 1% and the Z score was -0.25. For `CCCCN1CCN(C[C@H](O)CO)CC1=O`, the “% Inhibition” value was -17% and the Z score was 1.53. For `CCc1cccnc1C(=O)Nc1cnn(CC(=O)N2CC(C)OC(C)C2)c1` (stereo not drawn), the “% Inhibition” value was -1% and the Z score was 0.19. In the case of `Cc1ccc(C)c(C(=O)c2ccccc2C(=O)N2CC[C@@H](N)C2)c1`, the “% Inhibition” value is reported as -10% and the Z score is reported as 1.13. `CCOC(=O)[C@@H](N)C1(OCC)CCCC1` was tested, and the “% Inhibition” value was 1% and the Z score was -0.21. In the case of `COc1ccc(C)cc1S(=O)(=O)[C@H]1CS(=O)(=O)C[C@@H]1NC1CCCC1`, the “% Inhibition” value is reported as 10% and the Z score is reported as -1.34. `O=C(Nc1cccc(Cl)c1)N1CCc2c(c3ccccc3n2CC2CC2)C1` was tested, and the “% Inhibition” value was -8% and the Z score was 1.03. `CCn1ccnc1CN[C@H]1CCCc2nc(-c3cccnc3)ncc21` was tested, and the “% Inhibition” value was 3% and the Z score was -0.33. `CN1CN(C(=O)c2ccc3c(c2)C(C)(C)C(=O)N3)CC1=O` was tested, and the “% Inhibition” value was -6% and the Z score was 1.03. With `COc1ccc(-c2cc(C(F)(F)F)nc(-n3nc(-c4ccc(Cl)cc4)cc3-c3ccc(Cl)cc3)n2)cc1` the “% Inhibition” value was -12% and the Z score was 2.27. For `O=C(Nc1ccccc1C(F)(F)F)c1ccccc1N1C(=O)C2CC=CCC2C1=O` (stereo not drawn), the “% Inhibition” value was -15% and the Z score was 2.08. In the case of `O=C(NCc1cc2n(n1)CCNC2)Nc1ccccc1C(F)(F)F`, the “% Inhibition” value is reported as 14% and the Z score is reported as -1.89. `COCc1nc(C(=O)NCC2(c3ccc(C)cc3C)CC2)co1` was tested, and the “% Inhibition” value was -4% and the Z score was 0.51. In the case of `CC(=O)N[C@H]1CN(C(=O)c2ccc3c(c2)OCO3)C[C@@H]1c1ccc(C)cc1`, the “% Inhibition” value is reported as -3% and the Z score is reported as 0.53. In the case of `CCc1c(C(=O)N2CC(C)(C)[C@@](C)(O)C2)csc1C`, the “% Inhibition” value is reported as -18% and the Z score is reported as 1.58. In the case of `CC1(CO)CCCC1NCC(C)(O)C(F)(F)F` (stereo not drawn), the “% Inhibition” value is reported as 33% and the Z score is reported as -3.73. In the case of `O=C(N[C@@H](Cc1c[nH]c2ccccc12)C(=O)Nc1ccncc1)OCc1ccccc1`, the “% Inhibition” value is reported as 5% and the Z score is reported as -0.53. For `COCc1nc(C(=O)Nc2onc(C3CCCCC3)c2C)cs1`, the “% Inhibition” value was 3% and the Z score was -0.37. `CC1CCN(C(=O)c2ccccc2NC(=O)c2cccs2)CC1` was tested, and the “% Inhibition” value was -9% and the Z score was 1.79. For `COc1ccc(NC(C)=O)cc1NC1CC(C)N(C2CC2)C1` (stereo not drawn), the “% Inhibition” value was 2% and the Z score was -0.27. In the case of `c1ccc(-c2nc(COc3ncnc4scc(-c5ccccc5)c34)cs2)cc1`, the “% Inhibition” value is reported as -7% and the Z score is reported as 1.14. For `Cc1ccc(C(=O)NCc2ccc(Cn3cccn3)cc2)c(=O)[nH]1`, the “% Inhibition” value was -18% and the Z score was 2.87. In the case of `O=C(NC[C@H]1CCN(C/C=C/c2ccccc2)C1)c1cccc(O)c1`, the “% Inhibition” value is reported as -4% and the Z score is reported as 0.89. For `CC(=O)N1CCC[C@H](N(CCN(C)C(=O)c2ccc(F)cc2F)C2CCOCC2)C1`, the “% Inhibition” value was 1% and the Z score was -0.13. For `COc1ccc(Cl)cc1-c1ncc(C)c(N(C)C)n1`, the “% Inhibition” value was -8% and the Z score was 1.25. For `Cc1nc(CCn2cc(C[C@H](C)c3ccccc3)nn2)no1`, the “% Inhibition” value was 4% and the Z score was -0.48. In the case of `Cc1ccc(N2N=C(C(=O)O)S(=O)(=O)c3cc(F)ccc32)cc1`, the “% Inhibition” value is reported as -7% and the Z score is reported as 0.78. For `Cc1ccccc1NC(=O)Nc1ccc(N2CCN(C(=O)C3c4ccccc4Oc4ccccc43)CC2)cc1`, the “% Inhibition” value was 3% and the Z score was -0.48. In the case of `Cc1ccc(S(=O)(=O)N2CCN(C(=O)CN3CCOCC3)CC2)c(Cl)c1`, the “% Inhibition” value is reported as -5% and the Z score is reported as 0.93. For `O=C(c1n[nH]c2ccccc12)N1C[C@@H]2CC[C@H]1CN(C1CCOCC1)C2`, the “% Inhibition” value was -4% and the Z score was 0.63. In the case of `CO[C@H]1CCN(C(=O)c2cnc3ccccc3n2)CC1(C)C`, the “% Inhibition” value is reported as -2% and the Z score is reported as 0.33. With `N[C@H]1CCOc2ccc(Br)cc2C1=O` the “% Inhibition” value was -8% and the Z score was 1.05. `CO[C@@]12CC[C@H](O)C[C@@H]1N(Cc1cnc(-c3ccccc3C)s1)CC2` was tested, and the “% Inhibition” value was -12% and the Z score was 1.56. For `O=C(NCc1ccccc1)N1CCc2nc(N3CCCCC3)nc(Oc3cccc(F)c3)c2C1`, the “% Inhibition” value was 2% and the Z score was -0.35. `CN(CC1CCOC1)C(=O)NC(c1ccc(F)cc1)c1ccccn1` (stereo not drawn) was tested, and the “% Inhibition” value was 5% and the Z score was -0.46. `CCc1ccc(C(=O)NCCNc2cnccn2)o1` was tested, and the “% Inhibition” value was -16% and the Z score was 1.55. In the case of `O=S1(=O)CCCN(CCOc2cc(Cl)cc(Cl)c2)CC1`, the “% Inhibition” value is reported as 4% and the Z score is reported as -0.36. With `CCOC1CC1C(=O)NC1(C#N)CCC(C(C)(C)C)CC1` (stereo not drawn) the “% Inhibition” value was -12% and the Z score was 2. In the case of `CCc1ccccc1NC(=O)Cn1nc2c3sc(N(C)C)nc3ncn2c1=O`, the “% Inhibition” value is reported as -14% and the Z score is reported as 1.37. `NC(=O)C1(NCC(=O)NC2CCCCCCC2)CCCCC1` was tested, and the “% Inhibition” value was -3% and the Z score was 0.57. With `CN(C(=O)c1ccc2c(c1)OCO2)[C@H]1COC[C@@H]1O` the “% Inhibition” value was -2% and the Z score was 0.47. In the case of `Cc1ccc(-c2nc(C#N)c(N(Cc3ccc(F)cc3)Cc3ccco3)o2)cc1`, the “% Inhibition” value is reported as -18% and the Z score is reported as 2.25. `CN(C)c1cnc(C(=O)N[C@H]2CCCc3cn[nH]c32)cn1` was tested, and the “% Inhibition” value was -41% and the Z score was 4.81. With `O=C(Cc1c[nH]c2ccccc12)NC(c1ccccn1)[C@H]1C[C@@H](O)C1` (stereo partly drawn) the “% Inhibition” value was 0% and the Z score was 0.07. In the case of `CCOc1ncc(NC(=O)Cc2ccc(Cl)cc2)c(OCC)n1`, the “% Inhibition” value is reported as -10% and the Z score is reported as 1.9. For `Cc1ccccc1NC(=O)Cn1ccnc1-c1ccc(-c2cc[nH]n2)s1`, the “% Inhibition” value was -13% and the Z score was 1.31. For `CC(C)C(=O)NCCN(C)C(=O)c1c(F)cc(F)cc1F`, the “% Inhibition” value was -7% and the Z score was 1.01. In the case of `Cc1ccc2nc(-c3cccc(Cl)c3)c(NC(=O)C3CCC3)n2c1`, the “% Inhibition” value is reported as 2% and the Z score is reported as -0.31. `C[C@@H](CCC1CCCC1)NC(=O)NCc1ccon1` was tested, and the “% Inhibition” value was -6% and the Z score was 0.94. `c1ccc(-c2nn(-c3ccccc3)c3ccccc23)cc1` was tested, and the “% Inhibition” value was -14% and the Z score was 1.59.

— ChEMBL document CHEMBL4888484, “Replenishing the malaria drug discovery pipeline: Screening and hit evaluation of the MMV Hit Generation Library 1 (HGL1) against asexual blood stage Plasmodium falciparum ,using a nano luciferase reporter read-out” (2022)
